# PubChem BioAssay AID488895 (Broad Institute, 2010)
# “And” between values parts separate entries of the source, which are not always exact repeats. Equal values may be shown once. About 120 (0.035%) of roughly 340,000 compounds were called active. Inconclusive results, whose numbers are uncertain, are shown with a selection of clear calls.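 How the source made its calls: active means mean replicate inhibition at least 50% and at least half of replicates individually reaching 50%; inconclusive means only one of the two criteria met; inactive means neither criterion met.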 A structure can be active in one record and inactive in another.
# Test: E. coli Tat export inhibitors, primary screen, MC4100, TorA-mCherry reporter, fluorescence, single point (AID 488895);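 further: exported cargo escapes ClpAP degradation while cytoplasmic cargo is degraded and loses fluorescence; 0% = median of neutral control wells and 100% = median of NaSCN control wells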
# Details: at 10 µM, active compounds read high
row,SMILES,inhibition
1,CC(C)n1ncc2c(C(=O)N3CCN(Cc4ccc(Br)s4)CC3)cc(C3CC3)nc21,active: 52.7%
2,Clc1ccc(OCCCNCc2ccccc2)c2ccccc12,inactive: -9.49%
3,CCN(CC)S(=O)(=O)c1ccc(NC(=O)Cc2cccs2)cc1,inconclusive: 28.7%
4,Cc1ccc(S(=O)(=O)Nc2ccnc(-c3cccnc3)n2)cc1,inconclusive: 38.8%
5,COc1cc(CNc2ccc3[nH]c(=O)[nH]c3c2)ccc1OCC(=O)NC(C)(C)C,inconclusive: 31%
6,CC(Sc1nnc(-c2ccccc2F)n1C1CC1)C(=O)NCc1ccco1 (stereo not drawn),inconclusive: 30.3%
7,CN(CC(=O)NCc1cccnc1)S(=O)(=O)c1ccccc1,inconclusive: 24.8%
8,Cc1nc(NS(=O)(=O)c2ccccc2)sc1NC(=O)Nc1ccc(Cl)cc1,inconclusive: 30.4%
9,COc1cc(/C=C2\SC(=S)N(CC(=O)O)C2=O)ccc1OC(=O)c1ccco1,inconclusive: 26.7%
10,O=C(O)c1cn(-c2ccc(F)cc2)c2cc(N3CCNCC3)c(F)cc2c1=O,active: 114%
11,CS/C(=N\S(=O)(=O)c1cccs1)Nc1ccc(Br)cc1F,inactive: 1.91% and inactive: -9.31%
12,O=[N+]([O-])c1cc(CN2CCCC2)c2cccnc2c1O,inactive: 1.89%
13,O=C(OC1CCCCC1)c1ccc(NC(=O)c2ccco2)cc1,inactive: 1.76%
14,CN(CC1CCCO1)S(=O)(=O)c1ccc(C(=O)Nc2ccc([N+](=O)[O-])cc2)cc1 (stereo not drawn),inactive: -6.82%
15,CCn1c(SCC(=O)c2ccccc2)nnc1-c1cccnc1,inconclusive: 36.8%
16,Cc1cc(N2CCN(Cc3nc(-c4ccc(Cl)cc4)oc3C)CC2)cc(C)n1,inactive: -9.08%
17,COCc1cc(=O)[nH]c2cc(NC(=O)C(F)(F)F)c(C)cc12,inconclusive: 33.4%
18,N#Cc1nc(-c2ccccc2Cl)oc1N1CCN(C(=O)c2ccco2)CC1,inconclusive: 29.5%
19,Fc1ccc(CN2CCCN(Cc3nc(-c4ccc5c(c4)OCO5)no3)CC2)cc1,inactive: -1.63%
20,CC1=C(C#N)C(c2cn(-c3ccccc3)nc2-c2cccs2)C(C#N)=C(C)N1,inconclusive: 33.5%
21,Cc1ccc2c(CC(=O)Nc3ccc(N4CCN(C)CC4)cc3C)coc2c1,inconclusive: 26.4%
22,CCOC(=O)c1c(NC(=O)CSc2n[nH]c(CNc3ccccc3)n2)sc(C)c1C,inconclusive: 26.4%
23,CC1Cc2cc(/C(O)=C3/C(=O)C(=O)N(Cc4ccco4)C3c3cccs3)ccc2O1 (stereo not drawn),inconclusive: 33.4%
24,CCn1c(SCC(=O)Nc2ccc(F)cc2)nnc1-c1cnccn1,inconclusive: 23.3%
25,CCCCCCCCCCCCCCCC[n+]1ccc(C(N)=O)cc1,active: 51.5%
26,COc1ccc(N2CCN(C(=O)Cn3cncn3)CC2)cc1,inactive: 2.87%
27,CN(C)c1nc(NCc2ccccc2)nc(SCC(N)=O)n1,inconclusive: 23.8%

row,SMILES,inhibition
1,CCC(C)C(N)C1=NC(C(=O)N[C@@H](CC(C)C)C(=O)N[C@H](CCC(=O)[O-])C(=O)N[C@H](C(=O)N[C@H]2CCCCNC(=O)[C@H](CC(N)=O)NC(=O)[C@@H](CC(=O)[O-])NC(=O)[C@H](Cc3cnc[nH]3)NC(=O)[C@@H](Cc3ccccc3)NC(=O)[C@H]([C@@H](C)CC)NC(=O)[C@@H](CCCN)NC2=O)[C@@H](C)CC)CS1.[Zn+2] (stereo partly drawn),active: 54.3%
2,COc1ccc(-c2cc([C@H]3[C@@H]4C=CCC[C@@]4(C)C(=O)N3Cc3ccccc3)ccc2F)cc1,inconclusive: 36%
3,Cc1c(Nc2ncnc3c2cnn3-c2ccccc2)c(=O)n(-c2ccccc2)n1C,inconclusive: 22.9%
4,COc1ccc2[nH]c(C(=O)N(C)c3ccc(F)cc3F)cc2c1,inconclusive: 36.5%
5,NC(=O)Cn1c(-c2nonc2N)nc2ccccc21,inconclusive: 28.2%
6,COc1ccc(C(=O)Nc2c3c(nn2-c2ccc(Cl)cc2)CS(=O)(=O)C3)cc1,inconclusive: 24.9%
7,c1ccc(-c2cc(CSc3nc4ccccc4[nH]3)on2)cc1,inactive: -49.9%
8,O=C(O)[C@H](CO)Nc1ncnc2sc3c(c12)CCC3,inconclusive: 38.5%
9,O=C1C=CC(=O)N1Cc1ccncc1,inactive: -0.456%
10,O=C(O)c1ccc(/C=C2\SC(=Nc3ccccc3)N(c3ccccc3)C2=O)cc1,inconclusive: 22.2%
11,Cc1cccc(NC(=O)[C@H](Cc2ccccc2)NC(=O)OCc2ccccc2)c1,inconclusive: 29.5%
12,Cc1cc(NC(c2ccc(Cl)cc2)c2ccc3cccnc3c2O)no1 (stereo not drawn),inactive: -1.44%
13,O=C(NCc1cccnc1)c1ccc(-c2ccccc2[N+](=O)[O-])o1,inactive: -5.32%
14,O=[N+]([O-])c1ccc(NC(=S)NCCc2ccccc2)cc1,inactive: -2.58%
15,c1ccc(CC2=NCCN2)cc1,inconclusive: 46.1%
16,Nc1nc(SCc2ccccc2)c2[nH]cnc2n1,inactive: -2.14%
17,CC(=O)NC(c1cc(F)c2cccnc2c1O)C1CC1 (stereo not drawn),inactive: 15.5%
18,CN(C)c1ccc(O)c2c1CC1CC3[C@@H](N(C)C)C(=O)C(C(N)=O)=C(O)[C@]3(O)C(=O)C1=C2O (stereo partly drawn),active: 149%
19,O=S(=O)(c1cc(Cl)cc(Cl)c1O)N1CCC2(CC1)OCCO2,inconclusive: 32.4%
20,O=C(NCc1ccccc1)C(=O)NCC1OCCN1S(=O)(=O)c1ccc([N+](=O)[O-])cc1 (stereo not drawn),inconclusive: 28.6%
21,CC1(C)CC(CCNS(=O)(=O)c2ccccc2)(c2ccccc2)CCO1 (stereo not drawn),inconclusive: 32.6%
22,CN1CCN(C(c2cccnc2)c2ccc3cccnc3c2O)CC1 (stereo not drawn),inactive: 2.58%
23,CC(C)(C)n1nnnc1C(c1cccnc1)N1CCN(c2cccc(C(F)(F)F)c2)CC1 (stereo not drawn),inactive: 0.884%
24,CC(C)Cn1c(N)c(C(=O)CCl)c(=O)n(C)c1=O,inconclusive: 24.9%
25,O=c1oc2ccccc2c(NC(c2ccccc2)c2ccccc2)c1[N+](=O)[O-],inactive: -13%
26,O=C(NCc1cccnc1)C(=O)NCC1OCCN1S(=O)(=O)c1ccc(F)cc1 (stereo not drawn),inconclusive: 30%
